Values joined by “and” are separate entries in the source; they are usually repeats but may differ in a detail not shown here. Identical values can stand only once. Among all 410,000 compounds or so, about 6,400 (1.6%) were called active. The inconclusive results got no clear call from the source; some entries with a clear call stand among them for comparison. Calls come from the whole dose curve; as a rule, active = well fitted inhibition curve with a large enough effect; inconclusive = small, poorly fitted or top-dose-only effect; inactive = no such curve, though single readings can be large or run the other way. Where the call is inconclusive, the potency comes from a doubtful curve fit.
Target: Glucagon-like peptide 1 receptor (Homo sapiens) (UniProt P43220)
Sequence of UniProt P43220 (P43220 whole entry, looked up): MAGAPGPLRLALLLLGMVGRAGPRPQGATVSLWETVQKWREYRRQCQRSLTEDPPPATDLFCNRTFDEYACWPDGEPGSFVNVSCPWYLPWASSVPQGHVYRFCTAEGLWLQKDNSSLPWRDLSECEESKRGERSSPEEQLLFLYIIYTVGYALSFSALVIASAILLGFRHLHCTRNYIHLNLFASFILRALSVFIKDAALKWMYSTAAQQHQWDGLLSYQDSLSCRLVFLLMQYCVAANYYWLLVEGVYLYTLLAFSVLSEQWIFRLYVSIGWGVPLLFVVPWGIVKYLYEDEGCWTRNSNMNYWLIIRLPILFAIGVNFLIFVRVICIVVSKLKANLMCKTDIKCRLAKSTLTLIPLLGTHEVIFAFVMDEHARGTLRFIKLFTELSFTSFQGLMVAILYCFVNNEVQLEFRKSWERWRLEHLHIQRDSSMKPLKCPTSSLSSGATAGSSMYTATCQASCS
Assay: qHTS of GLP-1 Receptor Inverse Agonists (Inhibition Mode); note: nearly all actives have a fitted effect of over 55% in size
Conditions: HEK293 GLP-1R CRE-luciferase, luminescence, 24 h, GLP-1R form is constitutively active; series mostly up to 38.3 µM
Summary of the method: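 qHTS in 1536-well format: reporter HEK293 cells expressing constitutive GLP-1R activity in DMEM + 10% Nu serum, 24 hr with compounds at 37 deg C, luminescence read after 12 min with detection reagent.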
Potency is the fitted concentration of half-maximal effect; tags give direction and shape of the fitted curve.

Row | SMILES | Potency
1 | COc1ccc(CN2CCC(C(=O)NCCc3ccc(OC)c(OC)c3)CC2)c(OC)c1 | inconclusive: 10 µM [inhibitor, partial curve]
2 | Cc1ccc(S(=O)(=O)Oc2ccc3ccc(O)cc3c2)cc1 | inconclusive: 11.2 µM [inhibitor, partial curve, poor fit]
3 | COc1ccccc1NC(=O)Nc1nn(C)c2cccc(N(C)C)c12 | inconclusive: 10 µM [inhibitor, single point]
4 | Cc1ccccc1CSc1ccc(-c2cccs2)nn1 | inconclusive: 11.2 µM [inhibitor, single point]
5 | CN1CCC(=C2c3ccccc3Sc3ccccc32)CC1 | inconclusive: 20 µM [inhibitor, partial curve, poor fit]
6 | Cc1c(C(=O)OCC(=O)c2c(N)n(CC(C)C)c(=O)n(C)c2=O)oc2ccccc12 | inconclusive: 5.62 µM [inhibitor, partial curve, poor fit]
7 | Oc1ccccc1CNc1nc2ccccc2n1CCN1CCCCC1 | inconclusive: 10 µM [inhibitor, partial curve, poor fit]
8 | COc1cccc(-c2cn3ncsc3n2)c1 | inactive
9 | O=C(Nc1ccc(Nc2ccccc2)cc1)c1ccc(Cl)cc1Cl | active: 8.91 µM
10 | Cc1ccc(-n2c(C(C)C)nc3oc4ccccc4c(=O)c3c2=O)cc1 | inconclusive: 28.2 µM [inhibitor, single point]
11 | Cc1ccc(CN2C3=NCCCN3c3ccccc32)cc1 | inconclusive: 22.4 µM [inhibitor, single point]
12 | CCC(Cc1ccccc1)NC(=O)c1cc(S(=O)(=O)N2CCCCC2)c[nH]1 (configuration not stated) | inconclusive: 12.6 µM [inhibitor, partial curve]
13 | Cc1cc(C)cc(C(=O)N2CC(=O)Nc3ccccc32)c1 | inconclusive: 2.82 µM [inhibitor, full curve, poor fit]
14 | CCOc1ccc(NS(=O)(=O)c2cc(C)c(C)cc2C)cc1 | inconclusive: 10 µM [inhibitor, partial curve, poor fit]
15 | Cc1cccc2cc(CNCc3ccccc3)c(Cl)nc12 | inconclusive: 28.2 µM [inhibitor, single point]
16 | O=C(N/C(=C/c1ccc(Br)cc1)C(=O)N1CCCC1)c1cccs1 | inconclusive: 17.8 µM [inhibitor, partial curve, poor fit]
17 | Cc1cc(Cl)ccc1NC(=S)N1CCN(Cc2ccc3c(c2)OCO3)CC1 | inconclusive: 3.16 µM [inhibitor, partial curve, poor fit]
18 | Cc1ccc(NC(=S)/C(C#N)=C2/Nc3ccccc3S2)cc1 | active: 3.98 µM
19 | Cc1cccc(-n2ncc3c(NC(C)C)ncnc32)c1 | inconclusive: 10 µM [inhibitor, partial curve]
20 | CC(Oc1ccccc1)C(=O)Nc1ccc(S(=O)(=O)N2CCCC2)cc1 (configuration not stated) | inactive
21 | COc1ccc(CNC(=S)Nc2ccccc2)cc1Cl | inconclusive: 22.4 µM [inhibitor, partial curve, poor fit]

Row | SMILES | Potency
22 | Nc1c2ccccc2nc2ccccc12 | inconclusive: 12.6 µM [inhibitor, partial curve, poor fit] and inconclusive: 3.98 µM [inhibitor, full curve, poor fit]
23 | Cc1ccc(NC(=O)c2nc[nH]c2C(=O)N[C@H](C)c2ccccc2)cc1 | inconclusive: 12.6 µM [inhibitor, single point]
24 | Cc1cccc(C(C)C)c1NC(=O)C(NS(=O)(=O)c1cccc2nsnc12)c1ccccc1 (configuration not stated) | inconclusive: 31.6 µM [inhibitor, single point]
25 | c1ccc(C2=Nn3c(nnc3-c3ccncc3)SC2)cc1 | inconclusive: 7.94 µM [inhibitor, partial curve]
26 | Cc1ccccc1NC(=O)c1cc(=O)c2ccccc2o1 | inactive
27 | Cc1ccc(S(=O)(=O)N2[C@@H](c3cccc(Cl)c3)C(C(=O)O)=CC[C@H]2c2ccc(C(C)C)cc2)cc1 | inconclusive: 31.6 µM [inhibitor, partial curve, poor fit]
28 | Cc1ccc(S(=O)(=O)N2CCOCC2)cc1C(=O)NC(C)CCc1ccccc1 (configuration not stated) | inconclusive: 11.2 µM [inhibitor, partial curve, poor fit]
29 | Clc1cccc(CNc2ccn3nc(-c4ccccc4Cl)cc3n2)c1 | inconclusive: 14.1 µM [inhibitor, single point]
30 | Cc1nc2ccccn2c1C(=O)N/N=C/c1cc(C)n(-c2ccc(Br)cc2)c1C | inactive
31 | CCCCNC(=S)N(C)/N=C/c1ccc(F)cc1 | inconclusive: 28.2 µM [inhibitor, single point]
32 | Cc1ccc(S(=O)(=O)/N=C(/Nc2c(C)cccc2C)c2ccccc2)cc1 | inconclusive: 28.2 µM [inhibitor, single point]
33 | CCOC(=O)C(CC)Sc1c(CC)cnc2c1c(=O)n(C)c(=O)n2C (configuration not stated) | inactive
34 | O=C(Cn1c(Cn2c(-c3cnccn3)nc3ccccc32)nc2ccccc21)c1ccc(OC(F)(F)F)cc1 | inactive
35 | Cc1ccc(-c2cnc3c(c2)C(=O)N([C@H](C)CO)C[C@H](C)[C@@H](CN(C)Cc2ccccc2F)O3)cc1 | inconclusive: 12.6 µM [inhibitor, single point]
36 | Cc1cc(=O)oc2c(C(=O)/C=C\c3cccs3)c(O)ccc12 | inconclusive: 28.2 µM [inhibitor, single point]
37 | COc1ccc(CSCC(=O)Nc2ccc(S(=O)(=O)N3CCCCCC3)cc2)cc1 | inconclusive: 10 µM [inhibitor, partial curve, poor fit]
38 | CCCCOc1ccc(CNC(=O)c2ccc3c(c2)N(C)C(=O)C2CCCCN32)cc1 (configuration not stated) | inconclusive: 11.2 µM [inhibitor, partial curve, poor fit]
39 | CC(=O)N1c2ccc(S(=O)(=O)N3CCC(C(=O)Nc4cccc(Cl)c4)CC3)cc2CC1C (configuration not stated) | inactive
40 | CCOC(=O)/C=C/C(=O)OCC(=O)Nc1c(Cl)cccc1Cl | inactive
41 | CCc1ccc(CNC(=O)C2CCCN(S(=O)(=O)c3ccc4c(ccn4C)c3)C2)cc1 (configuration not stated) | inconclusive: 14.1 µM [inhibitor, partial curve, poor fit]
42 | CCCCNC(=S)N/N=C/c1sccc1C | inconclusive: 1.41 µM [inhibitor, full curve, poor fit]

Row | SMILES | Potency
43 | O=C(c1ccccc1)N(Nc1ccccc1)c1ccccc1 | inconclusive: 7.94 µM [inhibitor, partial curve, poor fit]
44 | Cc1ccccc1NS(=O)(=O)c1ccc(C(=O)NCC(c2ccccc2)N(C)C)cc1 (configuration not stated) | inconclusive: 11.2 µM [inhibitor, partial curve, poor fit]
45 | CCSc1nc2c([nH]c3ccccc32)c(=O)n1-c1ccc(F)cc1 | inactive
46 | CCOC(=O)N1CCC(NC(=O)c2cc(-c3ccc(F)cc3)[nH]c2C)CC1 | inconclusive: 12.6 µM [inhibitor, single point]
47 | COCCOC(=O)c1[nH]c2c(c1C)C(=O)CC(c1ccco1)C2 (configuration not stated) | inconclusive: 1 µM [inhibitor, full curve, poor fit]
48 | C[C@@H]1[C@H]2CCCC[C@H]2CN(C(=O)OC(C)(C)C)[C@@H]1CC(=O)c1ccccc1 | inconclusive: 17.8 µM [inhibitor, partial curve, poor fit]
49 | Cc1ccc(NC(=O)COc2nsnc2N2CCOCC2)cc1Cl | inconclusive: 12.6 µM [inhibitor, partial curve, poor fit]
50 | Cc1ccc([C@H]2C[C@@H](O)[C@H](n3cc(-c4ccc(F)cc4)nn3)CN2C(=O)C2CCCCC2)cc1 | inconclusive: 12.6 µM [inhibitor, single point]
51 | CN(C)c1nnnn1-c1cccc(Oc2ncc(C(F)(F)F)cc2Cl)c1 | inconclusive: 12.6 µM [inhibitor, partial curve, poor fit]
52 | O=C(Nc1cc(-c2ccccc2)[nH]n1)c1ccccc1F | inconclusive: 3.98 µM [inhibitor, single point]
53 | Cc1ccc(-c2nc3ccc(C)cn3c2Cc2cccc(Cl)c2)cc1 | inconclusive: 28.2 µM [inhibitor, single point]
54 | CCCCCn1c(CCNC(=O)c2cccc(C)c2)nc2ccccc21 | inconclusive: 10 µM [inhibitor, partial curve, poor fit]
55 | CN(C)c1nc(N/N=C/c2c[nH]c3ccccc23)nc(N2CCOCC2)n1 | inconclusive: 6.31 µM [inhibitor, partial curve, poor fit]
56 | Cc1ccc(S(=O)(=O)N2C3CCCCC3O[C@H]2CC(=O)c2cccc3ccccc23)cc1 (some centres not stated) | inconclusive: 28.2 µM [inhibitor, single point]
57 | COc1ccc(-c2csc(NC(=O)CS(=O)(=O)c3ccc(F)cc3)n2)cc1OC | inconclusive: 28.2 µM [inhibitor, single point]
58 | Cc1sc(NC(=O)c2ccco2)c(CN2CCN(Cc3ccccc3)CC2)c1C | inconclusive: 10 µM [inhibitor, partial curve, poor fit]
59 | O=C(NCc1ccco1)N1c2ccccc2Sc2ccccc21 | inconclusive: 28.2 µM [inhibitor, single point]
60 | Cc1cccc(NC(=O)c2sc3nc(N)c(C#N)cc3c2N)c1 | inactive
61 | Cc1ccccc1C(=O)Nc1cccc(C(=O)Nc2ccccc2C(=O)O)c1 | inactive
62 | CCN(c1ccccc1)S(=O)(=O)c1ccc(C(=O)N2CCCC(C(F)(F)F)C2)cc1 (configuration not stated) | inconclusive: 11.2 µM [inhibitor, single point]
